Measured values: publication PMC4336329 (PLoS ONE, 2015)
Screen size: about 310,000 compounds; about 2,200 (0.71%) showed an effect of 50% or more. Effects have a minus sign here. The list shows a part of the results.

The molecules below were run against human ether-à-go-go-related gene (hERG) potassium channel (human, UniProt Q12809) (assay: primary screen, population patch clamp on CHO cells stably expressing hERG).
Chain of human ether-à-go-go-related gene (hERG) potassium channel (Q12809 whole entry, looked up): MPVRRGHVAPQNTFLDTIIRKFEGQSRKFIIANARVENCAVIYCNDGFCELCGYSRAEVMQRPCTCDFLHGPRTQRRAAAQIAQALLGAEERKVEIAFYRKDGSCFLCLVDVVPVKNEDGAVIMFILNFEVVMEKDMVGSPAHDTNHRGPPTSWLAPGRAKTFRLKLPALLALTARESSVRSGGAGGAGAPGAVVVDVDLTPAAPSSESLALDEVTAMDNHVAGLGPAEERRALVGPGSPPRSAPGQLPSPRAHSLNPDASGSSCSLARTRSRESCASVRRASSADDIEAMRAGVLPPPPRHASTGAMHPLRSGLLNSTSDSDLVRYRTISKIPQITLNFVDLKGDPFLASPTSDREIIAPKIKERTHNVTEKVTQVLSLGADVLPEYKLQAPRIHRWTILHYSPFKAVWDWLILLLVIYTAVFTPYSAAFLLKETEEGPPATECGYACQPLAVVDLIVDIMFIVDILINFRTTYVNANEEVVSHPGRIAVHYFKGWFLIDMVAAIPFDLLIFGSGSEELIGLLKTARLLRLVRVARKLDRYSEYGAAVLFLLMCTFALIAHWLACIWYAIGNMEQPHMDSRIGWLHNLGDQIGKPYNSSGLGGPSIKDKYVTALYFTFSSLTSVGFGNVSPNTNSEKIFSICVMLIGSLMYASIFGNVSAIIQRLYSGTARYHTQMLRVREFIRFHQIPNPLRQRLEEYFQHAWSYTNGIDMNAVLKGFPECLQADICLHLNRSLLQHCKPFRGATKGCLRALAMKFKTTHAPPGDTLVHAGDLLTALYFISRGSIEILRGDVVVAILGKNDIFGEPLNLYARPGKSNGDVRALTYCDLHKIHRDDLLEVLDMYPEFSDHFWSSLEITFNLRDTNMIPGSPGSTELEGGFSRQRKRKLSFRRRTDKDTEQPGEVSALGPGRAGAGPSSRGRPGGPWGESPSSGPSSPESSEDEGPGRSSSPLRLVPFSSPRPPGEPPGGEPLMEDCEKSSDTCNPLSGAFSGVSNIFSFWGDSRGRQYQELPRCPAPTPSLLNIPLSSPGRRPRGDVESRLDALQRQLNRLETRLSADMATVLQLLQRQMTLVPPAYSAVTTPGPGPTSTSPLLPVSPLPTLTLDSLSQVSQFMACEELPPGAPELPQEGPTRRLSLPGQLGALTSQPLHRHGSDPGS

SMILES	hERG current change (%, negative = inhibition) at 1uM
O=C(C1CCC(CNS(=O)(=O)c2cccc3cccnc23)CC1)N1CCc2ccccc21 (stereo not drawn)	1.06%
NS(=O)(=O)c1ccc(CCNC(=O)CSc2ccc(Cl)cc2Cl)cc1	-2.3%
C=CCc1ccc(OCCN2CCc3ccccc3C2)c(OC)c1.O=C(O)C(=O)O	-42.9%
COC(=O)CC(NC(=S)NC(=O)c1ccccc1)c1ccc(Br)cc1 (stereo not drawn)	13%
COc1ccccc1NC(=O)CCNC(=O)c1ccc(C)cc1	12.2%
CCOC(=O)C1CCN(C(=O)CNC(=O)c2nn(-c3ccc(OC)cc3)c(=O)c3ccccc23)CC1	14.2%
O=C(CSCCO)Nc1ccc(C23CC4CC(CC(C4)C2)C3)cc1	6.38%
Cn1c(-c2ccc(F)cc2)cnc1SCC(=O)NNC(=O)Cc1ccccc1	3%
CCc1ccc(CNC(=O)C2CCCN(S(=O)(=O)N3CC(C)CC(C)C3)C2)cc1 (stereo not drawn)	17.9%
CCCCCCCCSc1nnc(/N=C/N(C)C)s1	11.3%
O=C(CN1CCCCC1)Nc1ccc(S(=O)(=O)NC2CCCCC2)cc1	-4.49%
Cc1c(CC(=O)NCC(=O)O)c(=O)oc2cc3occ(-c4ccccc4)c3cc12	12.1%
COC(=O)c1sccc1NC(=O)Nc1ccccc1Cl	10.1%
CN(C(=O)CSc1nc2c(cnn2-c2ccccc2)c(=O)[nH]1)C1CCS(=O)(=O)C1 (stereo not drawn)	11.9%
COC(=O)c1cc(OC)c(OC)cc1NC(=O)CN1CCOCC1	5.07%
COc1ccc(N2CCN(CC(=O)c3ccc(O)c(C)c3O)CC2)cc1	21.2%
COc1cc(/C=N/O)cc(Br)c1OCc1cccc(Cl)c1	7.32%
COc1cc(NC(=O)CN(C)CCOc2ccccc2)c(C)cc1[N+](=O)[O-]	7.87%
O=C(Nc1cccc([N+](=O)[O-])c1)C(=O)N1CCCCC1	12%
Cc1cc(C)nc(NS(=O)(=O)c2ccc(NC(=O)CN3C(=O)c4ccccc4C3=O)cc2)n1	4.01%
Clc1ccc2oc(-c3cccnc3NCc3ccccc3)nc2c1	-7.92%
O=C(Nc1cc(S(=O)(=O)N2CCOCC2)ccc1-n1cncn1)c1ccc(Cl)cc1	-34.6%
O=C(NCC1CCCO1)Nc1ccccc1 (stereo not drawn)	3.62%
CC(=O)C1=C(O)C(=O)N(CCc2c[nH]c3ccccc23)C1c1ccco1 (stereo not drawn)	10.4%
